Reference: the RNAGym collection of RNA variant scans (doi:10.7554/elife.90254)
The source gives no read counts; variants with many changes may rest on few reads.

B1: LINE1-mini (parent)
chain: GGCAGAGCUCAACACAGCGUGGCAAAGUGGCUGUGGCUAGACUGCC

Variants of: B1
Assay: self-cleavage, relative activity (ratio to wild type); higher = more cleavage; in vitro, sequencing; the parent is a self-cleaving ribozyme
GGCAGAGCUCAACACAGCGUGGCAAAGUUGCGGGGGCUAGACUGCC [G29U U32G U34G] gave a self-cleavage of 0.13. With GGCAGAGCUCAACACAGCGUGGCAAAGUGACUGUAGCUAGAAUGCC [G30A G35A C42A] the self-cleavage was 0.12. Variant GGCAGAGCUCAACACAGCGUGGCAAAGUGAAUGUGGCUAGACUGAC [G30A C31A C45A] has a self-cleavage of 0.16. GGCAGAGCUCAACACAGCGUGGCAAAGUUGGUGUGGCUAGACUGCA [G29U C31G C46A] showed a self-cleavage of 0.15. For GGCAGAGCUCAACACAGCGUGGCAAAGUUACUGUGGCUAGACCGCC [G29U G30A U43C], the self-cleavage was 0.21. GGCAGAGCUCAACACAGCGUGGCAAAGUGCCUGUGGCUGGACUGUC [G30C A39G C45U] gave a self-cleavage of 0.03. For GGCAGAGCUCAACACAGCGUGGCAAAGUGCCUGAGGCUAGACUGCU [G30C U34A C46U], the self-cleavage was 0.17. For GGCAGAGCUCAACACAGCGUGGCAAAGUGAAUGUGGAUAGACUGCC [G30A C31A C37A], the self-cleavage was 0.17. In the case of GGCAGAGCUCAACACAGCGUGGCAAAGUGCAUGUGGCGAGACUGCC [G30C C31A U38G], the self-cleavage is reported as 0.04. For GGCAGAGCUCAACACAGCGUGGCAAAGUGUCUGUGGCUGGUCUGCC [G30U A39G A41U], the self-cleavage was 0.07. For GGCAGAGCUCAACACAGCGUGGCAAAGUUGCUUUGGCAAGACUGCC [G29U G33U U38A], the self-cleavage was 0.53. GGCAGAGCUCAACACAGCGUGGCAAAGUUGCUGUGGCUGGACUGAC [G29U A39G C45A] showed a self-cleavage of 0.1. In the case of GGCAGAGCUCAACACAGCGUGGCAAAGUUCCUGUGGCUGGACUGAC [G29U G30C A39G C45A], the self-cleavage is reported as 0.01. GGCAGAGCUCAACACAGCGUGGCAAAGUGACUGUGGCUCGCCUGCC [G30A A39C A41C] showed a self-cleavage of 0.06. For GGCAGAGCUCAACACAGCGUGGCAAAGUUGCUUUGGCUAGAGUCCU [G29U G33U C42G G44C C46U], the self-cleavage was 0.01. For GGCAGAGCUCAACACAGCGUGGCAAAGUGACCGUGGCUAGACUCCC [G30A U32C G44C], the self-cleavage was 0.03. In the case of GGCAGAGCUCAACACAGCGUGGCAAAGUGAAUCUGGCUUGACUGCC [G30A C31A G33C A39U], the self-cleavage is reported as 0.07. For GGCAGAGCUCAACACAGCGUGGCAAAGUUGCUGUGGGUAGACUGAC [G29U C37G C45A], the self-cleavage was 0.01. Variant GGCAGAGCUCAACACAGCGUGGCAAAGUGUCUGUGGCUUGACUUCC [G30U A39U G44U] has a self-cleavage of 0. In the case of GGCAGAGCUCAACACAGCGUGGCAAAGUUGCUGUGGCCAGACUGUC [G29U U38C C45U], the self-cleavage is reported as 0.55. GGCAGAGCUCAACACAGCGUGGCAAAGUUGCUGUGGCUAGGGUGCC [G29U A41G C42G] showed a self-cleavage of 0.02. In the case of GGCAGAGCUCAACACAGCGUGGCAAAGUGCCUGGGGCUAGUCUGCC [G30C U34G A41U], the self-cleavage is reported as 0.04. GGCAGAGCUCAACACAGCGUGGCAAAGUUGCUGUUGCGAGACUGCC [G29U G35U U38G] gave a self-cleavage of 0.03. With GGCAGAGCUCAACACAGCGUGGCAAAGUGACUGUGGCUAGGCUGUC [G30A A41G C45U] the self-cleavage was 0.04. For GGCAGAGCUCAACACAGCGUGGCAAAGUGCCUGUGGCCACACUGCG [G30C U38C G40C C46G], the self-cleavage was 0.01. In the case of GGCAGAGCUCAACACAGCGUGGCAAAGUUGUUGUGGCUGGACUGCC [G29U C31U A39G], the self-cleavage is reported as 0.02. With GGCAGAGCUCAACACAGCGUGGCAAAGUGCCUGUGGGAAGACUGCC [G30C C37G U38A] the self-cleavage was 0.06. In the case of GGCAGAGCUCAACACAGCGUGGCAAAGUGAUUGUGGAUAGGCUGCC [G30A C31U C37A A41G], the self-cleavage is reported as 0.05. For GGCAGAGCUCAACACAGCGUGGCAAAGUUGCUGUGGGGAGACUGCC [G29U C37G U38G], the self-cleavage was 0. GGCAGAGCUCAACACAGCGUGGCAAAGUUGCCGUGGCUAGACUGUC [G29U U32C C45U] gave a self-cleavage of 0.1. With GGCAGAGCUCAACACAGCGUGGCAAAGUGCCUCUGGCUUGACUGCC [G30C G33C A39U] the self-cleavage was 0.06. GGCAGAGCUCAACACAGCGUGGCAAAGUGCUUGUGGCUGGAUUGCC [G30C C31U A39G C42U] gave a self-cleavage of 0.11. With GGCAGAGCUCAACACAGCGUGGCAAAGUGACUGUGGCGAAACUGCC [G30A U38G G40A] the self-cleavage was 0.06. In the case of GGCAGAGCUCAACACAGCGUGGCAAAGUUGCUGUGGCUAUUCUGCC [G29U G40U A41U], the self-cleavage is reported as 0.25. Work on GGCAGAGCUCAACACAGCGUGGCAAAGUUGCUGUGGCUGGACUCCC [G29U A39G G44C] yielded a self-cleavage of 0.17. In the case of GGCAGAGCUCAACACAGCGUGGCAAAGUUGCUGGGGAUAGACUGCC [G29U U34G C37A], the self-cleavage is reported as 0.1. For GGCAGAGCUCAACACAGCGUGGCAAAGUGCCUGUGUCUAGCCUGCC [G30C G36U A41C], the self-cleavage was 0.01. With GGCAGAGCUCAACACAGCGUGGCAAAGUCGCUGAGGCGAGACUGAG [G29C U34A U38G C45A C46G] the self-cleavage was 0.01. GGCAGAGCUCAACACAGCGUGGCAAAGUGACUAUGGCUAGCCUGCG [G30A G33A A41C C46G] gave a self-cleavage of 0.1. With GGCAGAGCUCAACACAGCGUGGCAAAGUCGCUUUGGCUAGACUUCC [G29C G33U G44U] the self-cleavage was 0.02. GGCAGAGCUCAACACAGCGUGGCAAAGUGACGGUGGCUAGACUCCC [G30A U32G G44C] showed a self-cleavage of 0.03. GGCAGAGCUCAACACAGCGUGGCAAAGUUGCUGUAGCUAGUCUGCC [G29U G35A A41U] showed a self-cleavage of 0.11. With GGCAGAGCUCAACACAGCGUGGCAAAGUCGCCGGCGCUAGACUGCC [G29C U32C U34G G35C] the self-cleavage was 0.06. For GGCAGAGCUCAACACAGCGUGGCAAAGUUUCUGUCGGUAGACUGCC [G29U G30U G35C C37G], the self-cleavage was 0.05. In the case of GGCAGAGCUCAACACAGCGUGGCAAAGUUGAGGUGGCUAGACUUCC [G29U C31A U32G G44U], the self-cleavage is reported as 0.12. With GGCAGAGCUCAACACAGCGUGGCAAAGUUGCUGUAGCUAGACUGCU [G29U G35A C46U] the self-cleavage was 0.1. GGCAGAGCUCAACACAGCGUGGCAAAGUUGCUGUGGCAAUACUGCC [G29U U38A G40U] gave a self-cleavage of 0.01. GGCAGAGCUCAACACAGCGUGGCAAAGUUACUGUGGCUAGACUUCC [G29U G30A G44U] gave a self-cleavage of 0.08. Variant GGCAGAGCUCAACACAGCGUGGCAAAGUGCCUGUGACUAGAGUGCC [G30C G36A C42G] has a self-cleavage of 0.1. With GGCAGAGCUCAACACAGCGUGGCAAAGUUGCUGUGGCUAGACUGAU [G29U C45A C46U] the self-cleavage was 0.55. Variant GGCAGAGCUCAACACAGCGUGGCAAAGUUGAUGGGGCUAUACUGCC [G29U C31A U34G G40U] has a self-cleavage of 0. GGCAGAGCUCAACACAGCGUGGCAAAGUGCGUGCGGCUACACUGCC [G30C C31G U34C G40C] showed a self-cleavage of 0.01. Variant GGCAGAGCUCAACACAGCGUGGCAAAGUGACUGUCGCUGGACUGCC [G30A G35C A39G] has a self-cleavage of 0.05. Variant GGCAGAGCUCAACACAGCGUGGCAAAGUGACUGUAGCUAGACUUCC [G30A G35A G44U] has a self-cleavage of 0.06. For GGCAGAGCUCAACACAGCGUGGCAAAGUUGCUGAGGGUAGACUGCC [G29U U34A C37G], the self-cleavage was 0.03. GGCAGAGCUCAACACAGCGUGGCAAAGUGACAGUGGCUAGACUACU [G30A U32A G44A C46U] gave a self-cleavage of 0.04.
